For 23 compounds, activation results are on record in PubChem BioAssay AID1346428 (National Center for Advancing Translational Sciences (NCATS), 2018).

In all, about 48,000 compounds went through this assay and about 1,200 (2.5%) were called active. About 2% were inconclusive and are not listed.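 The calls were made as follows: active = activation of at least 60% and not above a set upper limit (about 1 call in 100 departs from these limits); inconclusive = activation of 40% to 60%, or above that upper limit; inactive = activation under 40%.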 The list shows a part of the results.

The target of this assay is Probable G-protein coupled receptor 32 (Homo sapiens) (UniProt O75388). In words: qHTS for Agonists of Human Resolvin D1 Receptor DRV1. Also: 0% is about no effect. As to conditions: CHO-K1 GPR32 beta-arrestin PathHunter luminescence, 90 min; at 76.9 µM; stronger effect = higher value; zero percent set by DMSO-only wells. In a few lines: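 Engineered CHO-K1 line co-expressing GPR32-ProLink and EA-beta-arrestin. Compound treatment lasted 90 min at 37 °C. Luminescence was recorded after 1 h with substrate at ambient temperature, relative to DMSO basal wells.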
Sequence of UniProt O75388 (O75388 whole entry, looked up): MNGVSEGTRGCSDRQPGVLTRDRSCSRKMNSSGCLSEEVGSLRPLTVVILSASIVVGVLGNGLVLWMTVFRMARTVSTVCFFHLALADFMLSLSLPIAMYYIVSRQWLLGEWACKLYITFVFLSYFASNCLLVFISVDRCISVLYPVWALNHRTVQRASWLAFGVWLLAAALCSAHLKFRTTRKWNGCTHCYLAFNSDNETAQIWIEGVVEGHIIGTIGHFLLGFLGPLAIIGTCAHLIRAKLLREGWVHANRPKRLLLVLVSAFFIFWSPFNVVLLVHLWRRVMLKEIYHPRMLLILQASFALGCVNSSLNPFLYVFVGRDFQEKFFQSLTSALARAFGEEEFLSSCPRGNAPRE
In general terms: qHTS replaces the single test concentration by a dilution series.
Consider `CCOC(=O)c1ccc(NC(=O)CC2C(=O)N(c3ccc(F)cc3)C(=O)N2Cc2ccc3c(c2)OCO3)cc1` (stereo not drawn), for which the activation is inactive: -3.74%.

Consider `COCCCNc1ncnc2c1cnn2-c1ccc(F)cc1`, for which the activation is inactive: 6.13%.

Take `CC(C)(C)OC(=O)N1CCC(c2c(C(=O)NCCN3CCC(Cc4ccccc4)CC3)cnn2-c2ccccc2)CC1`: the activation was inactive: -7.04%.

Consider `CCc1ccc(NC(=O)N2CC(C)Oc3ccc(C)cc32)cc1` (stereo not drawn), for which the activation is inactive: -40.9%.

Turning to `COc1cc2ccccc2cc1C(=O)Nc1ccc2oc(-c3cccc(Cl)c3Cl)nc2c1`, the activation was inactive: 0.403%.

For `CCCn1c(NCc2ccccc2C)nc2ccccc21`, the activation was inactive: 30.9%.

As to `COc1ccc(-n2cc(-c3ccccc3)nc2SCC(=O)Nc2ccccc2)cc1Cl`, the activation is inactive: -17.7%.

Turning to `CCc1ccc(S(=O)(=O)c2nnn3c2nc(N2CCCC2)c2sccc23)cc1`, the activation was inactive: -3.27%.

Take `COc1ccc(-n2nc3c(N4CCCC(C(=O)NCCc5ccc(C)cc5)C4)nnc(C)c3c2C)cc1` (stereo not drawn): the activation is inactive: 10%.

For the compound `CCOC(=O)c1ccc(NC(=O)Cn2cnc(S(=O)(=O)N3CCCC3)c2)cc1`, the activation is inactive: 9.47%.

`COc1ccc(-c2cc(C(F)(F)F)n3nc(C(=O)Nc4cccc(Cl)c4C)cc3n2)cc1`: the activation is inactive: 17.6%.

Turning to `CN1C(=O)Cc2cc(S(=O)(=O)CCC(=O)N3CCN(c4ccccc4F)CC3)ccc21`, the activation was inactive: -23.2%.

`Cc1nn(-c2ccc(N3CCCCC3)nn2)c(C)c1CCC(=O)NCc1ccccc1F`: the activation was inactive: -13.4%.

As to `Cc1ccccc1C1C=C(c2ccc(Cl)cc2)Nc2nnnn21` (stereo not drawn), the activation was inactive: -1.52%.

As to `COc1ccc(NC(=O)COCc2cc(-c3cccs3)on2)cc1`, the activation was inactive: -16.3%.

For `CCCCOc1ccc(CNC(=O)CCCN2C(=O)CSc3c2c(C)nn3-c2ccccc2)cc1`, the activation is inactive: 3.24%.

For `CCOC(=O)c1ccccc1NC(=O)c1sc2nc3n(c(=O)c2c1C)CCCC3`, the activation was inactive: -5.42%.

For `CCc1ccc(CNC(=O)CN2C(=O)c3cccnc3Oc3ccc(C)cc32)cc1`, the activation was inactive: -11.1%.

With `Cc1ccc2c(=O)cc(C(=O)Nc3ccc(S(=O)(=O)N4CCCCCC4)cc3)oc2c1C`, the activation is inactive: -0.294%.

For `CSc1ncc(Cl)c(C(=O)N(Cc2ccc(N(C)C)cc2)Cc2ccco2)n1`, the activation is inactive: 5.76%.

On to `Cc1c(Cl)cccc1NC(=O)C(C)n1nnc2sc3c(c2c1=O)CCCC3` (stereo not drawn), for which the activation was inactive: 5.78%.

For `Cc1c(C)n(C)c2ccc(C(=O)N3CCN(c4ccccc4)CC3)cc12`, the activation is inactive: -29.2%.

`Cc1ccc(CNC(=O)Cn2cc(C(=O)c3ccc(F)cc3)c(=O)c3ccc(C)nc32)cc1`: the activation is inactive: 3.59%.
